Laboratory results from PMC12040169 (PLOS Biology, 2025).
The other results are listed elsewhere or left out.

tested on: T1, C. trachomatis L2/434/Bu expressing GFP (CTL2-GFP); design: species or system HeLa; C. trachomatis total inclusion area by high-content imaging, normalised to DMSO; conditions: total inclusion area; 28.5 h, 10 µM; inhibitor
T1 construct: L2/434/Bu GFP intracellular growth in HeLa cells
Summary of the method: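 Bulk GFP and resorufin signals were read first. Wells were then fixed, stained with Hoechst and imaged to detect GFP inclusions and host nuclei. MICs followed the previously described calculation.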

SMILES	% of control remaining
Cc1nc2c(C(=O)NCCOCCO)cnn2c(C)c1Cc1cccc(OC(F)(F)F)c1 [CBK167454]	47.3188
COc1cc(C)c(Nc2cc(-c3cccc(N(C)C)c3)ncn2)cc1OC [CBK090780]	7.1281
O=C(OCc1cc2ccccc2o1)N1CCOCC1 [CBK200162]	90.5844
Cc1ccc(C(=O)Nc2c(C(=O)N3CCN(Cc4ccccc4)CC3)cnn2-c2ccccc2)cc1 [CBK263053]	96.1534
CN1CCCN(c2cncc(-c3ccc(F)cc3F)n2)CC1 [CBK065858]	79.9761
COC(=O)C(CCSC)NC(=O)c1ccc(C(F)(F)F)cc1 (centres unmarked) [CBK057452]	85.2423
O=c1oc(-c2ccncc2)nn1Cc1ccccc1F [CBK283692]	75.7543
CCCCCCSc1ccc(C(=O)CCCN2CCOCC2)cc1 [CBK010344]	100.092
O=C(Cc1ccc(Cl)cc1)N1CCc2c([nH]c3ccccc23)C12CCN(Cc1ccc(F)cc1)C2 (centres unmarked) [CBK059453]	56.0062
CCn1c(COc2cccc3cccnc23)nnc1SCC(=O)c1ccc(F)cc1 [CBK265656]	99.8993
CCNC(=O)Nc1ccccc1C(=O)NC1CCCCC1 [CBK175266]	117.935
Cc1ccc(S(=O)(=O)/N=C(\NC(C)C(=O)O)c2ccccc2)cc1 (centres unmarked) [CBK263099]	109.057
Cc1c[n+]2ccsc2n1Cc1ccccc1C#N [CBK260951B]	78.4965
COC(=O)c1c(NC(=O)CCCC(=O)O)sc(C)c1C [CBK265382]	98.1106
CCN(CC)CCN1C(=O)C(O)=C(C(=O)c2ccc(C)o2)C1c1ccccn1 (centres unmarked) [CBK266584]	85.3613
COC(=O)COc1ccc(NC(=O)c2ccc([N+](=O)[O-])c(C)c2)cc1 [CBK268338]	123.453
Cc1nn(Cc2ccccc2)c(C)c1NC(=O)CSc1nc2sc3c(c2c(=O)n1C)CCC3 [CBK266069]	81.1657
O=C(c1c(F)cccc1F)N1CCC(O)(c2cccnc2F)CC1 [CBK284359]	46.7407
O=C(Cc1cc(F)c(F)c(F)c1)NCCc1c[nH]c2ccc(Cl)cc12 [CBK159768]	81.6894
O=C(Nc1ccc([C@@H](O)[C@H]2COCC(=O)N2Cc2ccccn2)cc1)c1cccs1 [CBK289700]	91.5282
O=C(CC1CCCC1)N1CCCC(c2nnc(-c3cccs3)o2)C1 (centres unmarked) [CBK284631]	105.078
CCC(CC)C(=O)N(C)c1c(C)nc2ccc(C(=O)N(C)CCN(C)C)cn12 [CBK146491]	100.349
Cc1nn(C(C)CC(=O)O)c(C)c1Br (centres unmarked) [CBK269138]	95.2381
CCN(CC)C(=O)CCCc1[nH]nc(O)c1Cc1c(Cl)cccc1Cl [CBK081524]	91.3817
CCCCC(CC)C(=O)N1CCN(c2ccc(OC)cc2)CC1 (centres unmarked) [CBK091414]	91.0094
Cn1ccc(C2CCCCCN2S(=O)(=O)c2ccc3[nH]c(=O)[nH]c(=O)c3c2)n1 (centres unmarked) [CBK286407]	54.7439
N#Cc1ccc(Cn2ccnc(N3CCC(Sc4ccccc4)CC3)c2=O)cc1 [CBK153653]	84.062

SMILES	% of control remaining
O=C(O)Cn1nnc(-c2ccc(OCc3cccc(C(F)(F)F)c3)cc2)n1 [CBK267034]	130.416
CC(C)Cc1nc(Cn2cnc3c(cnn3C)c2=O)no1 [CBK306256]	66.0819
COc1ccc2cc(C#N)c(SCC(=O)Nc3ccc(F)cc3)nc2c1 [CBK068765]	105.847
COc1cc(C(=O)NC/C=N/O)cc(OC)c1OC [CBK015662]	63.15
O=C(c1ccsc1NS(=O)(=O)Cc1ccccc1[N+](=O)[O-])N1CCOCC1 [CBK042294]	101.558
O=c1[nH]c(CSc2nnc(CCCOc3ccc(Cl)cc3Cl)o2)nc2ccccc12 [CBK268861]	88.7783
CC(C)(C)c1cc(C(=O)Cn2c(=N)n(Cc3ccccc3)c3ccccc32)cc(C(C)(C)C)c1O [CBK262480B]	66.9265
CC1CCN(C(C)Cn2cncc2-c2cnn(C)c2)CC1 (centres unmarked) [CBK281703]	113.55
CC(C)(C)OC(=O)N1CCc2[nH]nc(Nc3ccccc3)c2C1 [CBK281541]	98.1596
Cc1ccc(NC(=O)CC2SC(NC3CCCCC3)=NC2=O)c(C)c1 (centres unmarked) [CBK059500]	48.0024
Nc1ccccc1Sc1nccc(C(F)(F)F)n1 [CBK006263]	65.0031
COc1ccccc1-c1cnc2[nH]c(=O)n([C@@H](C)c3ccccc3)c2n1 [CBK064717]	91.9508
O=C(CN1CCOCC1)c1ccc(O)o1 [CBK019286]	76.4232
CN(C)CCN1CCN(c2nc(-c3cccc4cccnc34)cnc2N)CC1 [CBK063464]	110.977
Cc1cccn2c(=O)cc(CN3CCC(n4ccnc4)CC3)nc12 [CBK305519]	61.25
Cc1ccc(S(=O)(=O)NCCCN2CCOCC2)cc1C [CBK262934]	108.408
CC1CN(c2cc(CO)c(F)cn2)CC2(CCOC2C)O1 (centres unmarked) [CBK304754]	56.9874
CC(C)Nc1nc2cc(Cl)c(Cl)cc2nc1OCCN(C)C [CBK113419]	84.4978
O=C(COc1nc2ccccc2s1)N1N=CCC1c1ccccc1 (centres unmarked) [CBK270188]	44.1739
CC1(C)NC(=O)N(CC(O)CN(C2CCCCC2)C2CCCCC2)C1=O (centres unmarked) [CBK264578]	92.3338
CCOC(=O)CSc1nnc(-c2ccncc2)n1-c1ccccc1 [CBK263350]	114.406
O=C(c1ccc(S(=O)(=O)N2CCCC2)cc1)N1CCN(C/C=C/c2ccccc2)CC1 [CBK263587]	75.129
CC(=O)Nc1ccc(/C=N/c2ccccc2)cc1 [CBK012258]	82.1279
Cc1ccc([N+](=O)[O-])c(OCCNCCN(C)C)c1 [CBK267822C]	80.7452
COc1nccc(N2CCC3(CC(=O)NC3=O)C2)c1C#N (centres unmarked) [CBK307246]	45.6064
COc1nccnc1-c1cnn(Cc2ccccc2)c1 [CBK107090]	83.9991
CCc1cc(C(=O)NC(c2ccncc2)c2cccs2)n(C)n1 (centres unmarked) [CBK281482]	93.1581

SMILES	% of control remaining
O/N=C(\Cn1cncn1)c1ccc(Cl)cc1Cl [CBK261085]	102.906
CCN(CC)CCC(C(=O)c1ccccc1)S(C)(=O)=O (centres unmarked) [CBK022802]	84.5958
CC1(C)CC(NC(=O)C(=O)NC2CC(C)(C)NC(C)(C)C2)CC(C)(C)N1 [CBK261951]	122.959
Cc1ccsc1C(=O)N1CCN(Cc2cc(=O)n3ccccc3n2)CC1 [CBK305044]	61.8156
O=C(COc1ccc(NS(=O)(=O)c2ccc3oc4cc([N+](=O)[O-])ccc4c3c2)cc1)N1CCOCC1 [CBK268252]	84.266
Cc1cccc(N(CC(=O)NCc2ccco2)S(=O)(=O)c2ccccc2)c1 [CBK263571]	82.0106
Cn1ncc(Cl)c1C1CCCCCN1S(=O)(=O)c1ccc2[nH]c(=O)[nH]c(=O)c2c1 (centres unmarked) [CBK286303]	89.3629
CC(C)N1CCC(C(=O)NC(=O)NCCOc2cccc3ccccc23)CC1 [CBK034807]	90.9967
COCCc1ccccc1NC1CCN(c2nccs2)CC1 [CBK305476]	76.9449
O=C(O)Cn1nnnc1CN1CCc2ccccc2C1 [CBK287097]	106.893
Cc1cnc2[nH]c(C3CCCN(C(=O)c4cccnc4C)C3)cc2c1 (centres unmarked) [CBK285169]	121.458
Cc1ccsc1-c1nc2cnccn2c1NC1CCCC1 [CBK283524]	90.1135
NCC(NC(=O)c1cnc(-c2ccncc2)s1)C1CCCCC1 (centres unmarked) [CBK306502C]	31.8483
CCOC(=O)c1c(C)n(-c2ccc(C)cc2)c2ccc(Oc3ncccc3C#N)cc12 [CBK261310]	89.9379
CC(=O)Nc1ccc(C(=O)CSc2nnc(-c3ccncc3)o2)cc1 [CBK266349]	121.225
Cc1cc(C)n2ncc(C(=O)N3CCCC3c3ccc(F)cc3)c2n1 (centres unmarked) [CBK305885]	52.5095
O=S(=O)(Nc1cccc(-c2cnco2)c1)c1cc(C(F)(F)F)cc(C(F)(F)F)c1 [CBK067127]	87.0663
CCCc1ccc(S(=O)(=O)Nc2ccc(C(=O)OC)cc2)cc1 [CBK028682]	98.9616
O=C1COc2ccccc2CCCCC2(CCCNC2)CN1 (centres unmarked) [CBK292166]	118.81
Cc1cc(Cl)ccc1OCCCC(=O)N1CCc2ccccc21 [CBK059016]	110.676
O=C(COc1ccccc1)c1cn(CC(=O)N2CCc3ccccc32)c2ccccc12 [CBK267659]	113.26
Cc1ccc2[nH]c3c(c2c1)CCNC31CCN(C(=O)[C@@H]2CCCC[C@@H]2C(=O)O)CC1 [CBK047222]	72.7188
OC(COCc1ccccc1)CN1CCN(Cc2ccccc2)CC1 (centres unmarked) [CBK278297C]	92.7241
COc1ccc(C(=O)N2CCC3(CCN(C(=O)CC4CCCCC4)C3)C2)cc1OC (centres unmarked) [CBK131770]	82.4953
[O-][S+](c1ccc(Cl)c(Cl)c1)c1cc2c(N3CCCNCC3)nccc2s1 (centres unmarked) [CBK038304C]	75.3523
CCN(CC)c1c(C)nc2ccc(C(=O)NCCc3ccccn3)cn12 [CBK145951]	92.4611
